# Over roughly 33,000 sequences, “E-score (-0.5 to 0.5)” has its median near -0.056; the highest 2% begin near 0.38. The list shows a part of the results.
# Biological target: Stb4 (UniProt P50104)
# Assay: PBM E-score (8-mer binding enrichment) (E-score (-0.5 to 0.5)); higher = stronger / more preferred TF binding; most listed sequences are background and not binding sites
# Conditions: protein concentration: 200 nM; construct: GST-DNA-binding domain
# Method in brief: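 Universal all-10-mer Agilent arrays, fresh or stripped once, were converted to double-stranded form by primer extension. GST-tagged yeast transcription factors from PURExpress in vitro transcription/translation, full-length or DNA-binding domain only, were applied at about 100-200 nM and detected with fluorescent anti-GST. After masliner normalisation, the Universal PBM Analysis Suite scored each ungapped eight-base word together with its reverse complement by E-score.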
row,Sequence,PBM E-score
1,ATATCGCG,0.0831
2,CAGTCTGC,-0.0293
3,AGGGACAC,-0.165
4,GGGGCTTA,0.0285
5,ACTTCACG,-0.0527
6,AGCGACGC,-0.0403
7,AAACACCG,0.147
8,ACGATAGC,-0.0501
9,ACTTTAGA,-0.0971
10,ACGCATTC,-0.00843
11,CACAGATA,-0.33
12,AATTCCGC,0.246
13,AAAAGCAT,0.0515
14,GTGCGGAA,0.289
15,GATTCAAC,0.079
16,ATGACCAC,-0.083
17,GGACCATA,-0.0331
18,AGCTCTAT,-0.276
19,AGGTAAAC,0.111
20,GAATCCAC,-0.134
21,CATATCCG,0.403
22,CGTGCAAG,-0.105
23,CAACGTGC,-0.0658
24,ATATAGCG,0.0331
25,AGCACCAT,-0.153

row,Sequence,PBM E-score
1,CTCCGTCC,0.15
2,GGATCACC,0.0128
3,CTTAATTC,0.128
4,GACAGCGA,-0.116
5,GGAATCCC,0.0619
6,ACCTATTG,-0.026
7,ATCACCCA,-0.147
8,GGTTATTA,0.152
9,GTACGACA,-0.074
10,AGCACCCG,0.345
11,GCGGCTCC,0.0298
12,CGCTTAGC,0.107
13,ACGAATAT,-0.152
14,CCGTGGCA,0.00718
15,ATAACCGC,0.0841
16,ATCAGGCG,-0.186
17,AACCCTTG,0.0122
18,AATGCACA,-0.0909
19,AGCTAATA,-0.229
20,CATCGGAA,0.435
21,GTGGAAAC,-0.0201
22,CATAAACA,0.0308
23,ACAGGTCT,-0.143
24,CTAGGTTA,0.00764
25,GAGTACAC,-0.0464

row,Sequence,PBM E-score
1,CGTTTAGC,-0.00974
2,AAATTGAG,-0.247
3,ATTAGCGG,0.12
4,CTAGACTA,-0.243
5,CTAGGGGC,-0.105
6,CTTAAACA,0.036
7,GCCAGTAC,-0.124
8,GACTGGAC,-0.149
9,ATCGAGGG,-0.0551
10,ACTACTGG,-0.184
11,CGCAACCC,-0.024
12,CTGTCAGC,0.0123
13,CGAATGCC,0.0855
14,CCTCATCG,0.111
15,GAGGTAGA,-0.11
16,CTTTAGTC,-0.173
17,ATGCCGCG,0.128
18,CCACGTGC,-0.231
19,GACTGGCC,0.183
20,GCATCAAA,-0.182
21,AAGACTAC,-0.0869
22,CCCACTAC,0.0298
23,ATAGACTA,-0.321
24,ATCCAAGC,-0.241
25,CATCTACA,-0.0969

row,Sequence,PBM E-score
1,AAGCAAGT,-0.09
2,CCGTAAGC,0.0573
3,ACAAATCC,0.0442
4,AACACGGG,0.179
5,GGGTCATA,-0.0394
6,GTGGTCGA,-0.288
7,GGCGGCTA,0.158
8,CCTCGCCA,-0.181
9,AGATCCTA,-0.309
10,AGACGCAC,-0.141
11,CCACGTGG,-0.375
12,ACCCACGC,-0.0243
13,CACCTTGA,-0.0666
14,TTCGAGAA,-0.207
15,CAGCCAAA,-0.0614
16,CGCTTTCC,0.202
17,AAGTGGTG,0.0815
18,CCGAGTCG,0.382
19,TAACGGCA,0.042
20,AACCTGCG,0.093
21,ACACTCAC,0.0622
22,ACTCTTAA,-0.213
23,ACTCATGC,-0.0572
24,GAATAAAA,-0.00836
25,AGTCACCC,0.0169

row,Sequence,PBM E-score
1,CGTCGGTA,0.294
2,AAACATGG,-0.155
3,ATGCACAA,-0.189
4,AGGGCAGC,-0.122
5,ATATGATG,-0.0789
6,GTTGTAAA,-0.0454
7,TCCTAAGA,-0.163
8,GCTTGATA,-0.236
9,ACCAGCGC,-0.24
10,ACGTGTAG,-0.0556
11,ACCACGTG,-0.181
12,GCATCCCC,0.123
13,GCATACAA,-0.0336
14,AACGGGAA,0.305
15,ACGGCGAG,-0.124
16,GGACTCTA,-0.24
17,ATATCGGG,0.306
18,AATGAAGT,-0.234
19,TCAAATGA,0.06
20,ACGCGCGG,0.2
21,ACAATCGA,-0.154
22,TATACTGA,-0.035
23,ACAAAGTG,-0.137
24,CTCATAGA,-0.111
25,CGTTTGCC,0.116

row,Sequence,PBM E-score
1,AGATAATG,0.0327
2,ATGAGGAC,-0.0777
3,GCCATCGC,-0.288
4,ATTATTAA,0.0806
5,CACGCCGG,0.215
6,TGAAAAAA,0.147
7,TGTGATAA,-0.145
8,AAGTGCAA,-0.154
9,CACATGGA,-0.239
10,TGATTCAA,-0.0277
11,CAACCGGG,0.263
12,TCGCCCAA,-0.207
13,ATGAATAC,0.00705
14,AGAAGTCC,-0.0141
15,CCGGCCGG,0.38
16,CTGAACGC,-0.041
17,CAATACGC,-0.0742
18,AGGTGAGG,-0.192
19,GCCCTGCC,0.0895
20,CCCGGCAA,0.31
21,GCATCACC,-0.0121
22,TTCCTAAA,-0.159
23,GGTGACAA,-0.0842
24,ATTAAGTC,-0.0488
25,CATAATCG,0.153

row,Sequence,PBM E-score
1,CTACCGCA,-0.0588
2,AAGAGGTG,-0.0351
3,ACTCTAAA,-0.0867
4,CTGAAGTC,0.0307
5,GCTTGCCA,-0.126
6,AGCGCGCT,-0.199
7,TCGGCGAA,0.312
8,ACTACTAG,0.0369
9,AGGTATTA,-0.0306
10,AGGCTTAA,-0.0797
11,AAATGAAA,0.114
12,CGTCGGAA,0.452
13,CGACTCGA,0.0278
14,ATCTCCGC,0.151
15,GGTATGTA,0.0188
16,CAAGAACA,-0.148
17,ACCCATCT,-0.027
18,CCACTTGC,-0.223
19,CGCAAAGC,0.104
20,ACGAGGGA,-0.0722
21,CTCCGAAA,0.357
22,GAGATGGA,-0.0422
23,CTCAGGAA,-0.196
24,GATTAGGA,0.0212
25,CTGAGACA,-0.266

row,Sequence,PBM E-score
1,TTAAGCAA,-0.0753
2,AGTTTAAG,-0.218
3,ATCCAGTG,-0.0566
4,CCGCGTTA,0.173
5,GCCGGACA,0.154
6,ACGTCGGG,0.349
7,GCGCTCGA,-0.176
8,TAATTCTA,-0.0127
9,CTCCTGGA,-0.388
10,AGCCCATA,-0.14
11,GACTGTGA,-0.0634
12,CTAGATGC,-0.163
13,AGGATTCC,0.0488
14,AGCTCTTA,-0.136
15,GGCCGCCA,-0.255
16,CCATCTCC,0.162
17,AGGAACCT,-0.0592
18,ACTCGCTC,-0.114
19,ATAGGCAA,-0.199
20,ATGTTATA,0.00304
21,GAATTACA,0.0557
22,GCGGGAAA,0.306
23,ATGTCGGA,0.389
24,AGATCGAA,-0.0342
25,GGCTGAAA,-0.0623

row,Sequence,PBM E-score
1,CTCTCGCC,-0.112
2,AGTGGCCG,0.102
3,CGTGACCC,0.128
4,GTTTCTTA,-0.172
5,CCCATCGC,-0.0498
6,AGATAGTC,-0.0955
7,AAAAGGTT,-0.106
8,ATTCATCC,0.202
9,CAGTGATC,-0.082
10,CCATAATA,-0.0506
11,CCCTGAGG,-0.304
12,TCTAGAGA,-0.256
13,CGTATTAG,0.00072
14,GAGAAACA,-0.138
15,CGGAGGGA,0.205
16,ATCCCTAA,-0.183
17,CGGCCAAC,0.114
18,GCAGCGGC,0.0994
19,AAAGCCGC,0.12
20,GAGTGTGA,-0.127
21,CACACGTA,-0.375
22,CCGTTGCG,0.0426
23,ACGGTTAT,0.206
24,CAATGAGA,-0.238
25,ACCGTCCT,-0.13

row,Sequence,PBM E-score
1,CCTTGGAG,-0.196
2,AACGATTG,-0.109
3,AAATTGGA,-0.152
4,ACCAGGTA,-0.108
5,AGGTAGTG,0.017
6,AATAATAA,-0.109
7,TCACGCCA,-0.0816
8,GTCCAAGA,-0.118
9,AAGTACCA,0.0732
10,AGACTCCA,-0.249
11,TAGTTGAA,0.0129
12,TATAGGCA,-0.243
13,AATTAAAT,-0.0575
14,CAGCCGAG,0.409
15,CCATTTCC,0.186
16,GCGTTTTA,-0.0316
17,CACGATAC,-0.0122
18,CATTGGGC,-0.126
19,GACTTCAC,-0.0153
20,ATCCTTCA,-0.0298
21,GCGAGCGC,-0.103
22,GCACTCAC,-0.0367
23,GGCTTAAA,0.104
24,TGAAGCCA,-0.175
25,AAGCTGGT,-0.165

row,Sequence,PBM E-score
1,CCACGTTC,-0.00115
2,ATAACAGC,-0.148
3,CTCTCAAA,-0.213
4,GGTAAGGA,-0.164
5,ATTGCTTG,-0.318
6,CGTCCACC,-0.101
7,AAAACAAT,-0.0733
8,GTGCCAAC,-0.0389
9,TAAACTTA,-0.0974
10,CTGTTTCA,-0.162
11,ATGGGAGA,-0.232
12,GGAGAACC,0.0794
13,AGGCGCGG,0.0899
14,AAAATCGT,0.047
15,CAGAGCGC,-0.233
16,AGATCCAT,0.00399
17,CTGTCTCA,-0.116
18,CAATATCC,0.333
19,AGGGCCAC,-0.252
20,AGTGCGGA,0.291
21,CCGGCTCC,0.306
22,GTTCGACA,-0.132
23,ACGTAATG,0.0114
24,AGCTTTGG,-0.119
25,AAACAGAT,-0.0667

row,Sequence,PBM E-score
1,AGGGTCCC,-0.0218
2,ATCCCTGA,-0.189
3,GCGAAGCC,-0.147
4,CCGAAAAG,0.384
5,AACAACGC,-0.19
6,CGGTCCAG,-0.0508
7,ATATATGA,-0.0862
8,AGCCTAAT,-0.149
9,AATATTAA,0.156
10,GACGTACC,-0.0237
11,ACGCTAGG,-0.217
12,CTTTCGTA,-0.177
13,GCCAGGCA,0.0465
14,CACCCTTA,-0.0807
15,ACGTCAAA,-0.137
16,GTATGATA,-0.0653
17,CGGGTACC,0.312
18,ATCCGTCC,0.296
19,GAAACTTC,0.119
20,ATTTCCAC,-0.144
21,ATTAAAGG,-0.0527
22,AGCTCTTG,-0.233
23,CCCTTACC,-0.174
24,ACGAACCG,0.0475
25,AGTGCTGA,-0.235

row,Sequence,PBM E-score
1,ACGGCGGC,-0.0767
2,AGCGTGAC,-0.032
3,CAGGAACC,0.0901
4,CTCTTCCC,-0.0672
5,CACGTCAA,-0.174
6,ATATCCAT,-0.0245
7,AATTGGTC,-0.0601
8,AGATCTAT,-0.131
9,ACGCCATG,-0.308
10,AAGCTTGG,-0.154
11,AACCACCT,0.214
12,CGCTGGTA,-0.264
13,AGGAGGAA,-0.166
14,AACTAGTC,-0.207
15,ATACTGGG,-0.128
16,AACGATCG,0.0115
17,ACCCAAGT,-0.111
18,AAGGGGGA,-0.0311
19,AGGTCTTG,0.0433
20,CGGAGGAA,0.273
21,TGGCAACA,-0.324
22,ATTGTATA,0.136
23,CAACAGGC,-0.18
24,AATCCAGT,-0.0778
25,TATTTCAA,-0.231

row,Sequence,PBM E-score
1,CCTTAGGA,-0.117
2,ACCGTTTG,-0.109
3,AGGGGTCC,-0.0921
4,AGGGCCCC,-0.174
5,CGCCCAGA,-0.135
6,TGAGCGCA,-0.235
7,CCTGGCGA,-0.204
8,TACCGTCA,0.107
9,AAAGTTGC,0.012
10,TAGCTCAA,-0.234
11,AAGTATCG,0.0466
12,CCCAGCCC,-0.133
13,CCGCTAAA,0.0917
14,GGATCCAA,0.24
15,CGCGGAAG,0.357
16,GCATTGCC,0.0539
17,GGAACGTA,0.111
18,AATAACTC,-0.0405
19,ACCGGTGC,0.163
